Results published in PMC4336329 (PLoS ONE, 2015).
About 2,200 (0.71%) of roughly 310,000 compounds showed an effect of 50% or more. The effect is printed as a negative number. This is one part of the list.

target: human ether-à-go-go-related gene (hERG) potassium channel (human, UniProt Q12809); experiment: primary screen, population patch clamp on CHO cells stably expressing hERG
Sequence (Q12809 whole entry, looked up): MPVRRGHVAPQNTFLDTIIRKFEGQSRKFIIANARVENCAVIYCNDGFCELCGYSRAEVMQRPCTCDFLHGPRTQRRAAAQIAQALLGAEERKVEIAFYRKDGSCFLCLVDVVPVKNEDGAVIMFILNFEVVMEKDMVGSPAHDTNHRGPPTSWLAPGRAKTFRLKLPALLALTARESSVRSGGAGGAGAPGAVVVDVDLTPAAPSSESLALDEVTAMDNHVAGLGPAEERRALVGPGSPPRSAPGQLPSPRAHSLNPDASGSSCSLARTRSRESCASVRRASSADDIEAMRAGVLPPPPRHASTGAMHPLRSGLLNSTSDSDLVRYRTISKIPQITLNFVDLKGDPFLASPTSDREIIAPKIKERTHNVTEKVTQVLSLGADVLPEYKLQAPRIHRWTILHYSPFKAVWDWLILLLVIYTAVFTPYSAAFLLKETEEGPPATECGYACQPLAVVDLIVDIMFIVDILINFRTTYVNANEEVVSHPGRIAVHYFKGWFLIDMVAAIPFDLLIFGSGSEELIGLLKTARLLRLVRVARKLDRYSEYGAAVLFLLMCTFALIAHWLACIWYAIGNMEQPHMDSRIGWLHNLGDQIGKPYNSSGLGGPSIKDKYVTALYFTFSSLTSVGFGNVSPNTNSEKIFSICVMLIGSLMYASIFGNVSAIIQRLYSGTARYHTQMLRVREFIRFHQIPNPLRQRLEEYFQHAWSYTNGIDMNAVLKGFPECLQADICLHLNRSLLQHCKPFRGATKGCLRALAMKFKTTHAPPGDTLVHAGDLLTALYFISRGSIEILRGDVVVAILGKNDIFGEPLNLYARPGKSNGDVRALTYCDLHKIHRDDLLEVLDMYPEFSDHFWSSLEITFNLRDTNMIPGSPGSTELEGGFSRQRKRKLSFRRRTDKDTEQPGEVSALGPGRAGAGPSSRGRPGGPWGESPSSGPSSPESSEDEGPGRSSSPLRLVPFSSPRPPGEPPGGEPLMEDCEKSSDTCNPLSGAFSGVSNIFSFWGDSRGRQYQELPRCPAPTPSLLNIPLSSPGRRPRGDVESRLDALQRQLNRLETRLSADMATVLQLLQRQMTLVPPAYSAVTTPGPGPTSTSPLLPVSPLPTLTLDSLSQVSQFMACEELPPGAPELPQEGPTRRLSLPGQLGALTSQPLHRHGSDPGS

Row | SMILES | hERG current change (%, negative = inhibition) at 1uM
1 | Cc1cn([C@H]2C[C@H](N=[N+]=[N-])[C@@H](CO)O2)c(=O)[nH]c1=O | 10.4%
2 | CC(C)NC(=O)CSc1ccccc1C(=O)NCc1ccc2c(c1)OCO2 | 10.1%
3 | CCOc1cc(/C=C2\C(=O)ON=C2c2ccccc2)cc(Br)c1O | 10.4%
4 | COc1ccc2nc(NC(=O)CN3CCOCC3)sc2c1 | 2.84%
5 | COc1ccc(-c2coc3cc(O)cc(O)c3c2=O)cc1OC | 17.1%
6 | CC(=O)N/N=C(\C)c1cccc(NC(=O)c2cccs2)c1 | 12.8%
7 | O=C(NCc1ccccc1)c1cc(=O)c2ccccc2o1 | 18.1%
8 | COc1ccc(NC(=O)COc2ccc(C(=O)OCC(=O)N(C(C)C)C(C)C)cc2OC)cc1 | 8.95%
9 | CCCCc1ccc(-c2csc(/C(C#N)=C\c3ccco3)n2)cc1 | 3.31%
10 | COc1ccc([C@H]2CC(=O)C=C(c3cc(Cl)ccc3OC)C2)cc1 | 16.5%
11 | COc1ccc(C(=O)NCC(=O)N/N=C/c2ccc(C)o2)cc1OC | 10.1%
12 | Fc1cccc(C2NC(=S)NC3=C2N2CCC3CC2)c1 (centres unmarked) | 1.79%
13 | COc1ccc(NC(=O)CSc2nnc(CNC(=O)COc3ccc(Cl)cc3)o2)c(OC)c1 | -3.05%
14 | COc1ccc(C(=O)NNC(=O)C(=O)NC2CCCCC2)cc1 | 4.11%
15 | O=C(CSc1n[nH]c(=O)[nH]c1=O)N/N=C/c1ccccc1 | 6.79%
16 | COc1ccc(CNC(=O)c2nnn(CC(=O)Nc3cc(C)cc(C)c3)c2N)cc1 | 18%
17 | Cc1c(OCC(=O)NC(Cc2ccc(Cl)cc2)C(=O)O)ccc2c(-c3ccccc3)cc(=O)oc12 (centres unmarked) | 1.02%
18 | N#Cc1ccc(C(=O)Nc2cccc3cccnc23)c(F)c1 | 13.9%
19 | Cc1ccc(/C=C/C(=O)O)cc1S(=O)(=O)NCCCC(=O)O | 2.96%

Row | SMILES | hERG current change (%, negative = inhibition) at 1uM
20 | COc1ccc(-c2nc(CS(=O)(=O)CC(=O)Nc3cccc(C(C)=O)c3)c(C)o2)cc1 | 7.52%
21 | CC(C)C(=O)NC(=S)Nc1ccccc1C(=O)NC1CCCCC1 | 10.5%
22 | Cc1ccc(NC(=O)N2CCC(c3ccccc3)C2)cc1C (centres unmarked) | 0.412%
23 | Cc1ccc(N2CCN(CCCCN3C(=O)C4CCCN4C3=O)CC2)cc1.Cl (centres unmarked) | -3.91%
24 | COc1ccc(S(=O)(=O)N2CCOC2CNC(=O)C(=O)NCC(C)C)cc1OC (centres unmarked) | 12.6%
25 | COc1ccccc1C(=O)N(C)c1nnc(-c2ccccc2)s1 | 9.26%
26 | Cc1onc(-c2c(Cl)cccc2Cl)c1C(=O)NCc1ccc(S(N)(=O)=O)cc1 | 11.4%
27 | O=C(CSc1nnc(COc2ccc(Br)cc2)o1)N1CCOCC1 | -0.41%
28 | Cc1cccc(N2CN(Cc3ccco3)CNC2=S)c1C | 2.74%
29 | CC(=O)Nc1cccc(NC(=O)Nc2cccc(F)c2)c1 | 7.66%
30 | Cc1ccc(S(=O)(=O)Nc2nc(C)cc(-n3nc(C)cc3C)n2)cc1 | 7.23%
31 | Cc1c(CCC(=O)NCC(=O)NCC(=O)O)c(=O)oc2cc3oc4c(c3cc12)CCCC4 | 10.4%
32 | CCOc1ccc(CC2S/C(=N/c3ccccn3)NC2=O)cc1 (centres unmarked) | 4.6%
33 | COc1ccc(C(=O)Nc2cc3c(cc2C#N)OCO3)cc1S(=O)(=O)N1CCN(C)CC1 | 13.2%
34 | CC1(C)OC(=O)C(=NNc2ccccc2C(=O)O)C(=O)O1 | 1.73%
35 | COc1cc(-n2c(N)c(C(=O)NCc3ccco3)c3nc4ccccc4nc32)cc(OC)c1OC | 15.3%
36 | NC(=O)COC(=O)CCCc1c[nH]c2ccccc12 | 8.35%
37 | Cc1oc2cc3oc(=O)c(CCC(=O)NCCCN4CCOCC4)c(C)c3cc2c1C | 9.17%
38 | CN(CC(=O)Nc1ccccc1C(F)(F)F)C(=O)c1ccc(N2C(=O)CCC2=O)cc1 | 1.56%

Row | SMILES | hERG current change (%, negative = inhibition) at 1uM
39 | O=C(COC(=O)CCC1CCCC1)Nc1ccccc1OC(F)F | 9.16%
40 | Cc1cccc(-n2c(N)c(C(=O)N3CCN(C)CC3)sc2=S)c1 | 5.92%
41 | Cc1ccc2nc(N3CCC(C(=O)NC4CCCCC4)CC3)sc2c1 | 16.3%
42 | CCSc1nc(C)c(C(C)=O)cc1C#N | 2.62%
43 | COc1cccc(C(=O)OCC(=O)c2ccc(Br)s2)c1 | 5.81%
44 | CCOc1cc(C2NC(=O)c3ccccc3O2)ccc1OC (centres unmarked) | 14.2%
45 | Oc1ccc[n+](CCCCC[n+]2cccc(O)c2)c1.[Br-] | 13.9%
46 | COc1ccc(C(=O)NNC2=Nc3cccc4cccc2c34)cc1 | 16.1%
47 | CCC(=O)NC(=S)Nc1ccc(S(=O)(=O)NC(C)=O)cc1 | 6%
48 | COc1ccc(S(=O)(=O)NC(C)C(=O)NCc2ccncc2)cc1OC (centres unmarked) | 15.1%
49 | CCN(C(=O)CN1CCCCC1C)c1c(N)n(Cc2ccccc2)c(=O)[nH]c1=O (centres unmarked) | -5.21%
50 | CC(C)(C)NC(=O)CSc1nnc(C2CC2)n1-c1ccccc1 | 8.31%
51 | Cc1ccc2c(c1)C1CN(C)CCC1N2S(=O)(=O)c1ccc(C#N)cc1 (centres unmarked) | -22.8%
52 | O=[N+]([O-])c1cc2c(c(CSc3nnc4ccccn34)c1)OCOC2 | 8.79%
53 | Cc1ccc(-c2cc(-c3ccc(C)cc3)[n+](C)o2)cc1.[O-][Cl+3]([O-])([O-])[O-] | -31.6%
54 | COC(=O)C1CN(S(=O)(=O)c2ccccc2)CCN1S(=O)(=O)c1ccccc1 (centres unmarked) | -5.86%
55 | C=CCn1c(COc2ccccc2)nnc1SCC(=O)N/N=C/c1cc(Cl)ccc1O | 15.2%
56 | CCOc1ccc(N(C)S(=O)(=O)c2ccc3[nH]cc(C(=O)NCCCOC)c(=O)c3c2)cc1 | 7.27%
